The results in this text go back to PMC5892938.

Some of the results follow. At the low end of the ranking, values are background and their order means little.

This experiment deals with GST-SBP-SLBP (stem-loop binding protein) (UniProt Q14493). The experiment can be described thus: targeted RNA Bind-n-Seq.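 Further: DESeq read counts versus GST-SBP nonspecific binding control pulldown.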 The note with it: RBNS binding buffer: 25 mM Tris pH 7.5, 150 mM KCl, 3 mM MgCl2, 0.1% Tween, 0.5 mg/mL BSA, 1 mM DTT; 27 nM protein, 750 pM RNA pool; temperature not stated; high values mean tight binding.
On to “GGUCACGUCUCAAUCAACUCAUUUCCAGGAGUUUCCUCCUGUAUAUUCAACAGCUCGCAGUCAAG”, for which the binding signal (log2 fold change) was -0.0166. For the sequence “GGUCACGUCUCAAUCAACUCUUCGCCCAGGGAAACCCCUGGUUAUUUCAACAGCUCGCAGUCAAG”, the binding signal (log2 fold change) is -0.375. For “GGUCACGUCUCAAUCAACUCGUCUUCAGGAGUUUUCUCCUGCAAUCUCAACAGCUCGCAGUCAAG” the value was 0.0176. The value for “GGUCACGUCUCAAUCAACUCCAUAGAGGGGGGGAAAACCCCUUUACCCUCCAACUCAACAGCUCGCAGUCAAG” was -0.386; that for “GGUCACGUCUCAAUCAACUCUUCCCCCAGGGAAACCCCUGGCUUACUCAACAGCUCGCAGUCAAG” was 0.207. With “GGUCACGUCUCAAUCAACUCAAAAGAGGGGGGGAAAACCCCUUUACCCUCAACAUCAACAGCUCGCAGUCAAG”, the binding signal (log2 fold change) was -0.189. As for “GGUCACGUCUCAAUCAACUCAAUCCCCAGGGAAAGCCCUGGUUUAUUCAACAGCUCGCAGUCAAG”, the binding signal (log2 fold change) stood at 0.101. Consider “GGUCACGUCUCAAUCAACUCUUUCUCCAGGGAAAUCCCUGGUUUAUUCAACAGCUCGCAGUCAAG”, for which the binding signal (log2 fold change) is 0.135. For “GGUCACGUCUCAAUCAACUCUUCUCCCAGGGAAACCCCUGGCUAUUUCAACAGCUCGCAGUCAAG” the value was 0.186; for “GGUCACGUCUCAAUCAACUCAGUCCCAGGAGUUUACUCCUGCAUUUUCAACAGCUCGCAGUCAAG”, -0.151; for “GGUCACGUCUCAAUCAACUCUUCCCCCAGGGAAAUCCCUGGUAUACUCAACAGCUCGCAGUCAAG”, 0.106. On to “GGUCACGUCUCAAUCAACUCUACUCCAGGAGUUUUCUCCUGUUAUGUCAACAGCUCGCAGUCAAG”, for which the binding signal (log2 fold change) stood at 0.0811. As to “GGUCACGUCUCAAUCAACUCAACUUCAGGAGUUUUCUCCUGUUUAUUCAACAGCUCGCAGUCAAG”, the binding signal (log2 fold change) is -0.00173.

Take “GGUCACGUCUCAAUCAACUCAUCGUCAGGAGUUUUCUCCUGCUAACUCAACAGCUCGCAGUCAAG”: the binding signal (log2 fold change) stood at 0.0602.

On to “GGUCACGUCUCAAUCAACUCUAUUUCAGGAGUUUCCUCCUGCUUUUUCAACAGCUCGCAGUCAAG”, for which the binding signal (log2 fold change) is -0.0774.

Turning to “GGUCACGUCUCAAUCAACUCCUUAGAGGGGGGGAAAACCCCUUUACCCUCGUCCUCAACAGCUCGCAGUCAAG”, the binding signal (log2 fold change) was 0.198. For “GGUCACGUCUCAAUCAACUCCUCAGAGGGGGGGAAAACCCCUUUACCCUCAUUUUCAACAGCUCGCAGUCAAG” the value was -0.0139; for “GGUCACGUCUCAAUCAACUCUACUCCCAGGGAAAACCCUGGCAUUCUCAACAGCUCGCAGUCAAG”, -0.172; for “GGUCACGUCUCAAUCAACUCAUGUCCAGGAGUUUACUCCUGUUAAUUCAACAGCUCGCAGUCAAG”, -0.155. In the case of “GGUCACGUCUCAAUCAACUCUUUUCCCAGGGAAAUCCCUGGUAAUCUCAACAGCUCGCAGUCAAG”, the binding signal (log2 fold change) was found to be 0.087. For “GGUCACGUCUCAAUCAACUCAAUUUCCAGGGAAAACCCUGGCUAACUCAACAGCUCGCAGUCAAG” the value was 0.185; for “GGUCACGUCUCAAUCAACUCUUUCUCCAGGGAAAGCCCUGGCAUUUUCAACAGCUCGCAGUCAAG”, -0.00434. As to “GGUCACGUCUCAAUCAACUCUUCGUCAGGAGUUUACUCCUGUAUUCUCAACAGCUCGCAGUCAAG”, the binding signal (log2 fold change) was -0.0507. For “GGUCACGUCUCAAUCAACUCUUUUCCCAGGGAAACCCCUGGUUUUUUCAACAGCUCGCAGUCAAG” the value was -0.0744; for “GGUCACGUCUCAAUCAACUCAUUCUCCAGGGAAACCCCUGGCAAUUUCAACAGCUCGCAGUCAAG”, -0.159; for “GGUCACGUCUCAAUCAACUCUUCUCCAGGAGUUUCCUCCUGCUAUUUCAACAGCUCGCAGUCAAG”, 0.068. For “GGUCACGUCUCAAUCAACUCUUCCUCCAGGGAAAUCCCUGGCUAUGUCAACAGCUCGCAGUCAAG”, the binding signal (log2 fold change) was 0.103. For “GGUCACGUCUCAAUCAACUCUAUUCCCAGGGAAAUCCCUGGCUAACUCAACAGCUCGCAGUCAAG” the value was 0.0585. The value for “GGUCACGUCUCAAUCAACUCAUUAGAGGGGGGGAAAACCCCUUUACCCUCCGUAUCAACAGCUCGCAGUCAAG” was -0.394; that for “GGUCACGUCUCAAUCAACUCAAUUUCCAGGGAAAACCCUGGUUUUUUCAACAGCUCGCAGUCAAG” was -0.119. The value for “GGUCACGUCUCAAUCAACUCCAUAGAGGGGGGGAAAACCCCUUUGCCCUCAAAUUCAACAGCUCGCAGUCAAG” was -0.0579; that for “GGUCACGUCUCAAUCAACUCUAUGUCAGGAGUUUACUCCUGCUUAUUCAACAGCUCGCAGUCAAG” was -0.0361; that for “GGUCACGUCUCAAUCAACUCUACUCCCAGGGAAAUCCCUGGCAUUCUCAACAGCUCGCAGUCAAG” was 0.116. Regarding “GGUCACGUCUCAAUCAACUCAUUCUCCAGGGAAAUCCCUGGCAAACUCAACAGCUCGCAGUCAAG”, the binding signal (log2 fold change) is -0.271.

On to “GGUCACGUCUCAAUCAACUCAAUCCCAGGAGUUUCCUCCUGUAAAUUCAACAGCUCGCAGUCAAG”, for which the binding signal (log2 fold change) is -0.0982. The value for “GGUCACGUCUCAAUCAACUCUUCUCCAGGAGUUUCCUCCUGUUAUCUCAACAGCUCGCAGUCAAG” was -0.105; that for “GGUCACGUCUCAAUCAACUCAAUUCCCAGGGAAAACCCUGGCAUACUCAACAGCUCGCAGUCAAG” was 0.0832.
